Measured values from PMC6303091.
No constants are given. Whether binding was seen depends on the method and setting. Some results given as binding are weak or reduced against the parent protein; the word gives no strength.

The chains behind the UniProt entries cited, without tags or fusion partners.
UniProt Q9SV55: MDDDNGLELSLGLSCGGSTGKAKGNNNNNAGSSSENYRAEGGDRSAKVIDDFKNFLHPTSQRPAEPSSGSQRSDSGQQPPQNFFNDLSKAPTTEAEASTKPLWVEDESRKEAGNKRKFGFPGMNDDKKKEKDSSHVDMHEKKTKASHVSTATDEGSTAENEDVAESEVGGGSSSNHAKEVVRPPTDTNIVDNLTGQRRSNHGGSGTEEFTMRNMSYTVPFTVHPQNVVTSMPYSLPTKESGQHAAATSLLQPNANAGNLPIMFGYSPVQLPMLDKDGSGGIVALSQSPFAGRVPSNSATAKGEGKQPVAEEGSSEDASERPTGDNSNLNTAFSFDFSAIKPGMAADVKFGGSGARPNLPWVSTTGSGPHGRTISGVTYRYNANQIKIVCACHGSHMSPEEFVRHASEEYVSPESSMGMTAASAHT
UniProt Q8GY55: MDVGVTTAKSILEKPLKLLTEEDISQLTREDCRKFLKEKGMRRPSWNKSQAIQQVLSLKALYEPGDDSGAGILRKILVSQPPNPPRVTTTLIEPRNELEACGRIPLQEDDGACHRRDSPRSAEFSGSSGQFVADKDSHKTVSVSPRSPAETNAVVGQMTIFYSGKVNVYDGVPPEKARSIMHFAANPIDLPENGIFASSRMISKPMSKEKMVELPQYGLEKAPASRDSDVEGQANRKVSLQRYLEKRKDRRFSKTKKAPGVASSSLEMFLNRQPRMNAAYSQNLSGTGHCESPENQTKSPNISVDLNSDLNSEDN
UniProt Q7XA73: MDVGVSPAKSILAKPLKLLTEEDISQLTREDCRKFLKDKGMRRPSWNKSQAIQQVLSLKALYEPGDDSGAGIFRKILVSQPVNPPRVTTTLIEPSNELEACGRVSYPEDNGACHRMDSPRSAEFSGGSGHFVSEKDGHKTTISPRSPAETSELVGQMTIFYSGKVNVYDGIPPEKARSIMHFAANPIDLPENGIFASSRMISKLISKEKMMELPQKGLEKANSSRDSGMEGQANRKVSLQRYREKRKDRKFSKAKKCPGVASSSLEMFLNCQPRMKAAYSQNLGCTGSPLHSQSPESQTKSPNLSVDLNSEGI
UniProt P93830: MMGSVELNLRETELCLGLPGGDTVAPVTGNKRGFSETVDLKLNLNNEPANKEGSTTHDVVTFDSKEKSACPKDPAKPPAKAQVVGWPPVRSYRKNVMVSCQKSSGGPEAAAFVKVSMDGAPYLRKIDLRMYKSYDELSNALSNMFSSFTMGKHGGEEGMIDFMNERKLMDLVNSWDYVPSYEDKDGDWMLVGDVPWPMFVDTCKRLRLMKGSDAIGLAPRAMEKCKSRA

B1: JAZ10 (AT5G13220), library prey (protein, UniProt Q93ZM9 1-197)
chain: MSKATIELDFLGLEKKQTNNAPKPKFQKFLDRRRSFRDIQGAISKIDPEIIKSLLASTGNNSDSSAKSRSVPSTPREDQPQIPISPVHASLARSSTELVSGTVPMTIFYNGSVSVFQVSRNKAGEIMKVANEAASKKDESSMETDLSVILPTTLRPKLFGQNLEGDLPIARRKSLQRFLEKRKERLVSTSPYYPTSA
B2: JAZ5 (AT1G17380), library prey (protein, UniProt Q9LDU5 1-274)
chain: MSSSNENAKAQAPEKSDFTRRCSLLSRYLKEKGSFGNIDLGLYRKPDSSLALPGKFDPPGKQNAMHKAGHSKGEPSTSSGGKVKDVADLSESQPGSSQLTIFFGGKVLVYNEFPVDKAKEIMEVAKQAKPVTEINIQTPINDENNNNKSSMVLPDLNEPTDNNHLTKEQQQQQEQNQIVERIARRASLHRFFAKRKDRAVARAPYQVNQNAGHHRYPPKPEIVTGQPLEAGQSSQRPPDNAIGQTMAHIKSDGDKDDIMKIEEGQSSKDLDLRL

The molecules below were run against Novel Interactor of JAZ (NINJA), bait (A. thaliana) (UniProt Q9SV55) (assay: two-hybrid; library screen (Y2H-seq): PJ69-4α bait strain transformed with the A. thaliana AT7 cDNA prey library; SD-Leu-Trp-His + 5 mM 3-AT; preys identified by Sanger sequencing of colonies, qPCR and NGS of pooled prey inserts, against an EMPTY bait screen or the library).
In the case of “A. thaliana protein PEAPOD2 (PPD2), library prey (from UniProt Q8GY55 1-315)”, the binding is reported as “binds”. For “PPD1 (AT4G14713), library prey (from UniProt Q7XA73 1-313)”, the binding was “binds”. With B1 the binding was “binds”. With B2 the binding was “binds”.

What follows are molecules tested against T1, TOPLESS amino-terminal region (TPL-N), bait (A. thaliana) (UniProt Q94AI7) (assay: two-hybrid; binary Y2H, GAL4 system, S. cerevisiae PJ69-4α co-transformed with bait (GAL4 DBD) and prey (GAL4 AD); 30°C; growth on SD-Leu-Trp-His against SD-Leu-Trp).
T1 sequence: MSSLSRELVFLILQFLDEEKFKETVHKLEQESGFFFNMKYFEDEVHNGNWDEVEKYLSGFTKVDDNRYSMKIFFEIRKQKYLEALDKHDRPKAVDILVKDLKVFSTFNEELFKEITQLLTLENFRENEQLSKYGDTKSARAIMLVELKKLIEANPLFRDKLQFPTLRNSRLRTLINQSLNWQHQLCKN
For NINJA, prey (from UniProt Q9SV55 1-425), the binding was “binds”. With “auxin/indole-3-acetic acid 17 (IAA17), cloned prey (from UniProt P93830 1-229)” the binding was “binds”.
